The conditions of the data set: mice, nebulized, 3 mg kg^−1.

In the case of `CC(C)(C)OC(=O)Nc1cccn([C@@H](CC2CC2)C(=O)N[C@@H](C[C@@H]2CCNC2=O)C(=O)C(=O)NCc2ccccc2)c1=O` [Compound 13b], the tolerability of inhalation result is “tolerated well and mice did not show any adverse effects”.

The values are drawn from publication PMC7164518 (Science (New York, N.y.), 2020).
